Assay results reported in the supplement of paper PMC13380429.

Tests used:
[1] = test system: A549-ACE2 infected with SARS-CoV-2; test: cell count relative to DMSO; higher = less toxic; conditions: 24 h
Caco-2 [2] = test: cell viability relative to DMSO; higher = less toxic; conditions: 72 h
Calu-3 [3] = test: as above; conditions: 72 h
HepG2 [4] = test: as above; conditions: 72 h
U2OS [5] = test: as above; conditions: 72 h
Vero E6 [6] = test: as above; conditions: 72 h
[7] = test system: A549-ACE2 infected with SARS-CoV-2; test: SARS-CoV-2 infection rate relative to DMSO; higher = more infection; conditions: 24 h
A549-ACE2 [8] = test: phospholipidosis EC50; higher = less potent phospholipidosis inducer; conditions: 24 h
A549-ACE2 [9] = test: drug-induced phospholipidosis relative to tamoxifen; higher = more phospholipidosis
[10] = test system: A549-ACE2 infected with SARS-CoV-2; test: morphology score (similarity to uninfected cells); higher = more like uninfected cells; conditions: 24 h
Caco-2 [11] = test: relative viability EC50 (midpoint between 100% and the lowest measured viability); higher = less toxic; conditions: 72 h
HepG2 [12] = test: as above; conditions: 72 h
U2OS [13] = test: as above; conditions: 72 h
Vero E6 [14] = test: as above; conditions: 72 h
Caco-2 [15] = test: drug sensitivity score (DSS) for viability; higher = more toxic; extreme values may be limits of the assay; conditions: 72 h
Calu-3 [16] = test: as above; conditions: 72 h
HepG2 [17] = test: as above; conditions: 72 h
U2OS [18] = test: as above; conditions: 72 h
Vero E6 [19] = test: as above; conditions: 72 h

Question: For `O=C1NC(=O)c2c1c(-c1ccccc1)cc1[nH]c3ccc(O)cc3c21`, which cell count ([1]; 0.1 µM) is on record?
Answer: 109%

Question: And the cell count ([1]; 0.3 µM)?
Answer: 110%

Question: What about the cell count ([1]; 1 µM) of the same compound?
Answer: 99%

Question: And the cell count ([1]; 3 µM)?
Answer: 92%

Question: What about the cell viability (Caco-2 [2]; 1 nM) of the same compound?
Answer: 98.2%

Question: And the cell viability (Caco-2 [2]; 10 nM)?
Answer: 104%

Question: What about the cell viability (Caco-2 [2]; 100 nM) of the same compound?
Answer: 104%

Question: And the cell viability (Caco-2 [2]; 1000 nM)?
Answer: 88.6%

Question: And the cell viability (Caco-2 [2]; 10000 nM)?
Answer: 30.7%

Question: And the cell viability (Calu-3 [3]; 1 nM)?
Answer: 111%

Question: What about the cell viability (Calu-3 [3]; 10 nM) of the same compound?
Answer: 103%

Question: And the cell viability (Calu-3 [3]; 100 nM)?
Answer: 109%

Question: And the cell viability (Calu-3 [3]; 1000 nM)?
Answer: 108%

Question: What about the cell viability (Calu-3 [3]; 10000 nM) of the same compound?
Answer: 63.8%

Question: What about the cell viability (HepG2 [4]; 1 nM) of the same compound?
Answer: 104%

Question: And the cell viability (HepG2 [4]; 10 nM)?
Answer: 110%

Question: What about the cell viability (HepG2 [4]; 100 nM) of the same compound?
Answer: 93.5%

Question: And the cell viability (HepG2 [4]; 1000 nM)?
Answer: 76.5%

Question: And the cell viability (HepG2 [4]; 10000 nM)?
Answer: 24.9%

Question: What about the cell viability (U2OS [5]; 1 nM) of the same compound?
Answer: 109%

Question: And the cell viability (U2OS [5]; 10 nM)?
Answer: 100%

Question: What about the cell viability (U2OS [5]; 100 nM) of the same compound?
Answer: 102%

Question: And the cell viability (U2OS [5]; 1000 nM)?
Answer: 81.6%

Question: What about the cell viability (U2OS [5]; 10000 nM) of the same compound?
Answer: 4.7%

Question: And the cell viability (Vero E6 [6]; 1 nM)?
Answer: 108%

Question: And the cell viability (Vero E6 [6]; 10 nM)?
Answer: 103%

Question: And the cell viability (Vero E6 [6]; 100 nM)?
Answer: 102%

Question: And the cell viability (Vero E6 [6]; 1000 nM)?
Answer: 93.6%

Question: And the cell viability (Vero E6 [6]; 10000 nM)?
Answer: 43.2%

Question: And the SARS-CoV-2 infection rate ([7]; 0.1 µM)?
Answer: 95%

Question: And the SARS-CoV-2 infection rate ([7]; 0.3 µM)?
Answer: 96%

Question: And the SARS-CoV-2 infection rate ([7]; 1 µM)?
Answer: 92%

Question: What about the SARS-CoV-2 infection rate ([7]; 3 µM) of the same compound?
Answer: 88%

Question: What about the “phospholipidosis EC50” value (A549-ACE2 [8]) of the same compound?
Answer: 8770 nM

Question: What about the drug-induced phospholipidosis (A549-ACE2 [9]; 0.3 µM, 24 h) of the same compound?
Answer: -1.81%

Question: What about the drug-induced phospholipidosis (A549-ACE2 [9]; 0.3 µM, 48 h) of the same compound?
Answer: 0.48%

Question: What about the drug-induced phospholipidosis (A549-ACE2 [9]; 0.3 µM, 72 h) of the same compound?
Answer: 1.16%

Question: And the drug-induced phospholipidosis (A549-ACE2 [9]; 0.833333 µM, 24 h)?
Answer: 0.56%

Question: And the drug-induced phospholipidosis (A549-ACE2 [9]; 0.833333 µM, 48 h)?
Answer: -0.71%

Question: And the drug-induced phospholipidosis (A549-ACE2 [9]; 0.833333 µM, 72 h)?
Answer: -0.0827%

Question: And the drug-induced phospholipidosis (A549-ACE2 [9]; 3.33333 µM, 24 h)?
Answer: 20.2%

Question: What about the drug-induced phospholipidosis (A549-ACE2 [9]; 3.33333 µM, 48 h) of the same compound?
Answer: 11.9%

Question: And the drug-induced phospholipidosis (A549-ACE2 [9]; 3.33333 µM, 72 h)?
Answer: 5.04%

Question: What about the drug-induced phospholipidosis (A549-ACE2 [9]; 6.66667 µM, 24 h) of the same compound?
Answer: 60.1%

Question: And the drug-induced phospholipidosis (A549-ACE2 [9]; 6.66667 µM, 48 h)?
Answer: 43%

Question: What about the drug-induced phospholipidosis (A549-ACE2 [9]; 6.66667 µM, 72 h) of the same compound?
Answer: 35.6%

Question: What about the drug-induced phospholipidosis (A549-ACE2 [9]; 10 µM, 24 h) of the same compound?
Answer: 125%

Question: What about the drug-induced phospholipidosis (A549-ACE2 [9]; 30 µM, 24 h) of the same compound?
Answer: 196%

Question: What about the morphology score ([10]; 0.1 µM) of the same compound?
Answer: 0.39

Question: And the morphology score ([10]; 0.3 µM)?
Answer: 0.41

Question: What about the morphology score ([10]; 1 µM) of the same compound?
Answer: 0.36

Question: What about the morphology score ([10]; 3 µM) of the same compound?
Answer: 0.29

Question: What about the “relative viability EC50” value (Caco-2 [11]) of the same compound?
Answer: 1910 nM

Question: And the “relative viability EC50” value (HepG2 [12])?
Answer: 1450 nM

Question: And the “relative viability EC50” value (U2OS [13])?
Answer: 1770 nM

Question: What about the “relative viability EC50” value (Vero E6 [14]) of the same compound?
Answer: 2240 nM

Question: And the drug sensitivity score (Caco-2 [15])?
Answer: 5.7

Question: What about the drug sensitivity score (Calu-3 [16]) of the same compound?
Answer: 1.3

Question: And the drug sensitivity score (HepG2 [17])?
Answer: 7.2

Question: What about the drug sensitivity score (U2OS [18]) of the same compound?
Answer: 8.3

Question: And the drug sensitivity score (Vero E6 [19])?
Answer: 4.1
